According to US20220162323A1:

Biological target: FGFR2c on NCI-H716 cells (human), P21802
Test: cell-based or functional assay

Sequence of FGFR2c on NCI-H716 cells (human), P21802 (P21802 22-821): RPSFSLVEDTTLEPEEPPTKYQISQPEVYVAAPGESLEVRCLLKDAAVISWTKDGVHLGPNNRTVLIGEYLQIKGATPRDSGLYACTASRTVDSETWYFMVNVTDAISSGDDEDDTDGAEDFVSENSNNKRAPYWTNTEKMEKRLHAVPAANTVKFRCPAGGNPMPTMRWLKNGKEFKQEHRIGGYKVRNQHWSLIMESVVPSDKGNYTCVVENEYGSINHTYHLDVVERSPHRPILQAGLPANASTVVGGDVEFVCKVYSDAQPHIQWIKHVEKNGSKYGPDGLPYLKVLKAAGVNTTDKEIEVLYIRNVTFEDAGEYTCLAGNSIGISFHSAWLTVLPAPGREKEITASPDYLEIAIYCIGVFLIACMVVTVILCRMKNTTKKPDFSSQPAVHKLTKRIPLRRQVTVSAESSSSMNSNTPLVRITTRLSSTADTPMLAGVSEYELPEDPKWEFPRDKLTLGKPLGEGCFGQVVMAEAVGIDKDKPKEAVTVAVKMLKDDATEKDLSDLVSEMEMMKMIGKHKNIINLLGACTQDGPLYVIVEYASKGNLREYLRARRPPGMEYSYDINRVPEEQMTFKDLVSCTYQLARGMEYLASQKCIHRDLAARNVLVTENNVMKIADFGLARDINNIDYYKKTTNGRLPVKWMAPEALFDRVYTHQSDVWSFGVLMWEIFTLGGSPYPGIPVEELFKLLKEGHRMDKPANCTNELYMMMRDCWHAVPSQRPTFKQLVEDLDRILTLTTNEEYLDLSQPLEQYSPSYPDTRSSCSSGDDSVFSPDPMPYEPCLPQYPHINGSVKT

B1: mAb2-maytansinoid 1ALP (antibody)
heavy: QVQLVESGGGVVQPGKSLRLSCAASGFTFSNYGMHWVRQTPVKGLEWVTLIWYDGSNKYYTDSVKGRFTISRDNSKNTLYLQMNSLRSEDTAVYYCAREGNWNYGHAFDIWGQGTMVTVSSASTKGPSVFPLAPCSRSTSESTAALGCLVKDYFPEPVTVSWNSGALTSGVHTFPAVLQSSGLYSLSSVVTVPSSSLGTKTYTCNVDHKPSNTKVDKRV[human IgG4 Fc with S228P (EU numbers) omitted]
light: DIQMTQSPSTLSASVGDRVTITCRASQNIGNWLAWYQQKPGKAPNLLIYKASTLESGVPSRFSGSGSGTEFTLTISSLQPDDFATYNCQQYNSYSPTFGQGTKLEIKRTVAAPSVFIFPPSDEQLKSGTASVVCLLNNFYPREAKVQWKVDNALQSGNSQESVTEQDSKDSTYSLSSTLTLSKADYEKHKVYACEVTHQGLSSPVTKSFNRGEC
modifications: here or on the partner: maytansinoid 1ALP (mc-VC-PAB-NMe-C3-May) linker-payload conjugated; residues not stated in Example 5; DAR 1.9 per antibody
IC50 (M), CellTiter-Glo cytotoxicity, NCI-H716 cells, 6 days: > 2e-08 M | Max % Kill, NCI-H716 cells: 17%

B2: mAb2-tubulysin 1ALP (antibody)
heavy: QVQLVESGGGVVQPGKSLRLSCAASGFTFSNYGMHWVRQTPVKGLEWVTLIWYDGSNKYYTDSVKGRFTISRDNSKNTLYLQMNSLRSEDTAVYYCAREGNWNYGHAFDIWGQGTMVTVSSASTKGPSVFPLAPCSRSTSESTAALGCLVKDYFPEPVTVSWNSGALTSGVHTFPAVLQSSGLYSLSSVVTVPSSSLGTKTYTCNVDHKPSNTKVDKRV[human IgG4 Fc with S228P (EU numbers) omitted]
light: DIQMTQSPSTLSASVGDRVTITCRASQNIGNWLAWYQQKPGKAPNLLIYKASTLESGVPSRFSGSGSGTEFTLTISSLQPDDFATYNCQQYNSYSPTFGQGTKLEIKRTVAAPSVFIFPPSDEQLKSGTASVVCLLNNFYPREAKVQWKVDNALQSGNSQESVTEQDSKDSTYSLSSTLTLSKADYEKHKVYACEVTHQGLSSPVTKSFNRGEC
modifications: here or on the partner: deglycosylated; Q295 carries azido-PEG3-amine clicked to Tubulysin 1A-LP; DAR 2.1 per antibody
IC50 (M), CellTiter-Glo cytotoxicity, NCI-H716 cells, 6 days: > 2e-08 M | Max % Kill, NCI-H716 cells: 30.9%
